The chains are these.
T1: RBFOX1 RRM RbFoxmut (Fox-RRM*) (Homo sapiens, UniProt Q9NWB1 109-208, R118D;E147R;N151S;E152T)
T1 sequence: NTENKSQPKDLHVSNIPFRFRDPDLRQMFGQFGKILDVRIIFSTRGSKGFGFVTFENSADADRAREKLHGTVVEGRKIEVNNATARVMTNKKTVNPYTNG

B1: GGCAUUG (DNA:RNA)
RNA: GGGAGACCGGAAUUCAGAUUGUCCGGCAUUGUUAAAUCCCGUCGUAGCCACCA
DNA 1: CAATCTGAATTCCGGTCTCCC
DNA 2: TGGTGGCTACGACGGGATT
B2: GCUCAAA (DNA:RNA)
RNA: B1 RNA with G26C, C27U, A28C, U29A, U30A, G31A
DNA 1: CAATCTGAATTCCGGTCTCCC
DNA 2: TGGTGGCTACGACGGGATT
B3: UGCUUGG (DNA:RNA)
RNA: B1 RNA with G25U, A28U, U30G
DNA 1: CAATCTGAATTCCGGTCTCCC
DNA 2: TGGTGGCTACGACGGGATT
B4: UAGGUGA (DNA:RNA)
RNA: B1 RNA with G25U, G26A, C27G, A28G, U30G, G31A
DNA 1: CAATCTGAATTCCGGTCTCCC
DNA 2: TGGTGGCTACGACGGGATT
B5: ACCGCCC (DNA:RNA)
RNA: B1 RNA with G25A, G26C, A28G, U29C, U30C, G31C
DNA 1: CAATCTGAATTCCGGTCTCCC
DNA 2: TGGTGGCTACGACGGGATT
B6: UGCGUAG (DNA:RNA)
RNA: B1 RNA with G25U, A28G, U30A
DNA 1: CAATCTGAATTCCGGTCTCCC
DNA 2: TGGTGGCTACGACGGGATT
B7: GUCUUUA (DNA:RNA)
RNA: B1 RNA with G26U, A28U, G31A
DNA 1: CAATCTGAATTCCGGTCTCCC
DNA 2: TGGTGGCTACGACGGGATT
B8: UUAAUUG (DNA:RNA)
RNA: B1 RNA with G25U, G26U, C27A
DNA 1: CAATCTGAATTCCGGTCTCCC
DNA 2: TGGTGGCTACGACGGGATT
B9: CUGCACU (DNA:RNA)
RNA: GGGAGACCGGAAUUCAGAUUGUCCCUGCACUUUAAAUCCCGUCGUAGCCACCA
DNA 1: CAATCTGAATTCCGGTCTCCC
DNA 2: TGGTGGCTACGACGGGATT
B10: UAAAGAU (DNA:RNA)
RNA: B9 RNA with C25U, U26A, G27A, C28A, A29G, C30A
DNA 1: CAATCTGAATTCCGGTCTCCC
DNA 2: TGGTGGCTACGACGGGATT
B11: CUCUGAA (DNA:RNA)
RNA: B9 RNA with G27C, C28U, A29G, C30A, U31A
DNA 1: CAATCTGAATTCCGGTCTCCC
DNA 2: TGGTGGCTACGACGGGATT
B12: AUUGGUC (DNA:RNA)
RNA: B9 RNA with C25A, G27U, C28G, A29G, C30U, U31C
DNA 1: CAATCTGAATTCCGGTCTCCC
DNA 2: TGGTGGCTACGACGGGATT
B13: UACCGUG (DNA:RNA)
RNA: B1 RNA with G25U, G26A, A28C, U29G
DNA 1: CAATCTGAATTCCGGTCTCCC
DNA 2: TGGTGGCTACGACGGGATT
B14: ACUGCUU (DNA:RNA)
RNA: B9 RNA with C25A, U26C, G27U, C28G, A29C, C30U
DNA 1: CAATCTGAATTCCGGTCTCCC
DNA 2: TGGTGGCTACGACGGGATT
B15: ACAGUAC (DNA:RNA)
RNA: B1 RNA with G25A, G26C, C27A, A28G, U30A, G31C
DNA 1: CAATCTGAATTCCGGTCTCCC
DNA 2: TGGTGGCTACGACGGGATT
B16: CUUUUAA (DNA:RNA)
RNA: B9 RNA with G27U, C28U, A29U, C30A, U31A
DNA 1: CAATCTGAATTCCGGTCTCCC
DNA 2: TGGTGGCTACGACGGGATT
B17: GUUCUUG (DNA:RNA)
RNA: B1 RNA with G26U, C27U, A28C
DNA 1: CAATCTGAATTCCGGTCTCCC
DNA 2: TGGTGGCTACGACGGGATT
B18: UGUACAG (DNA:RNA)
RNA: B1 RNA with G25U, C27U, U29C, U30A
DNA 1: CAATCTGAATTCCGGTCTCCC
DNA 2: TGGTGGCTACGACGGGATT
B19: UAUCGAG (DNA:RNA)
RNA: B9 RNA with C25U, U26A, G27U, A29G, C30A, U31G
DNA 1: CAATCTGAATTCCGGTCTCCC
DNA 2: TGGTGGCTACGACGGGATT
B20: AUAAUAG (DNA:RNA)
RNA: B1 RNA with G25A, G26U, C27A, U30A
DNA 1: CAATCTGAATTCCGGTCTCCC
DNA 2: TGGTGGCTACGACGGGATT
B21: AGUGCCA (DNA:RNA)
RNA: B9 RNA with C25A, U26G, G27U, C28G, A29C, U31A
DNA 1: CAATCTGAATTCCGGTCTCCC
DNA 2: TGGTGGCTACGACGGGATT
B22: CCCGAAU (DNA:RNA)
RNA: B9 RNA with U26C, G27C, C28G, C30A
DNA 1: CAATCTGAATTCCGGTCTCCC
DNA 2: TGGTGGCTACGACGGGATT
B23: UGUUUUU (DNA:RNA)
RNA: B1 RNA with G25U, C27U, A28U, G31U
DNA 1: CAATCTGAATTCCGGTCTCCC
DNA 2: TGGTGGCTACGACGGGATT
B24: GACCCGU (DNA:RNA)
RNA: B9 RNA with C25G, U26A, G27C, A29C, C30G
DNA 1: CAATCTGAATTCCGGTCTCCC
DNA 2: TGGTGGCTACGACGGGATT
B25: GUCCCAA (DNA:RNA)
RNA: B9 RNA with C25G, G27C, A29C, C30A, U31A
DNA 1: CAATCTGAATTCCGGTCTCCC
DNA 2: TGGTGGCTACGACGGGATT
B26: AGCUCGA (DNA:RNA)
RNA: B1 RNA with G25A, A28U, U29C, U30G, G31A
DNA 1: CAATCTGAATTCCGGTCTCCC
DNA 2: TGGTGGCTACGACGGGATT
B27: UUGUUUG (DNA:RNA)
RNA: B1 RNA with G25U, G26U, C27G, A28U
DNA 1: CAATCTGAATTCCGGTCTCCC
DNA 2: TGGTGGCTACGACGGGATT
B28: CCCUAUC (DNA:RNA)
RNA: B9 RNA with U26C, G27C, C28U, C30U, U31C
DNA 1: CAATCTGAATTCCGGTCTCCC
DNA 2: TGGTGGCTACGACGGGATT
B29: UUCCCCA (DNA:RNA)
RNA: B9 RNA with C25U, G27C, A29C, U31A
DNA 1: CAATCTGAATTCCGGTCTCCC
DNA 2: TGGTGGCTACGACGGGATT
B30: CAUAUUG (DNA:RNA)
RNA: B1 RNA with G25C, G26A, C27U
DNA 1: CAATCTGAATTCCGGTCTCCC
DNA 2: TGGTGGCTACGACGGGATT
B31: CUCUACU (DNA:RNA)
RNA: B9 RNA with G27C, C28U
DNA 1: CAATCTGAATTCCGGTCTCCC
DNA 2: TGGTGGCTACGACGGGATT

Residue numbers refer to the chain shown, from its start. Some of the results follow.

This passage reports binding signal results from article PMC9911399, “Two distinct binding modes provide the RNA-binding protein RbFox with extraordinary sequence specificity”.

The test deals with T1, RBFOX1 RRM RbFoxmut (Fox-RRM*). Put plainly: EMSA; HiTS-Eq, 1 nM pool, 10 min; buffer printed only for the single-RNA assays: 10 mM Tris pH 7.5, 150 mM NaCl, 3.4 mM EDTA, 0.001% NP-40, 30 C. As to conditions: tags: His6 N-terminal (pET28a); label: 5' 32P. Put shortly:
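Purified wild-type or mutant RbFox RRM at increasing concentrations was equilibrated with 1 nM of 5′-radiolabelled RNA carrying 7 randomized nucleotides for 10 min in 50 µL. Unbound RNA was separated by 8% native PAGE and sequenced. Relative association constants came from read-count changes of each RNA species compared with the control reaction, normalised to the cognate motif.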
B1: the binding signal was 0.394 KA relative to UGCAUGU.

For the molecule B2, the binding signal was 0.0655 KA relative to UGCAUGU.

As to B3, the binding signal was 0.257 KA relative to UGCAUGU.

Turning to B4, the binding signal is 0.1 KA relative to UGCAUGU.

Consider B5, for which the binding signal is 0.0828 KA relative to UGCAUGU.

On to B6, for which the binding signal was 0.151 KA relative to UGCAUGU.

As for B7, the binding signal is 0.106 KA relative to UGCAUGU.

Turning to B8, the binding signal was 0.108 KA relative to UGCAUGU.

In the case of B9, the binding signal is 0.0814 KA relative to UGCAUGU.

For B10, the binding signal is 0.057 KA relative to UGCAUGU.

As for B11, the binding signal was 0.0887 KA relative to UGCAUGU.

As for B12, the binding signal is 0.143 KA relative to UGCAUGU.

As for B13, the binding signal is 0.097 KA relative to UGCAUGU.

On to B14, for which the binding signal was 0.0918 KA relative to UGCAUGU.

For B15, the binding signal is 0.0903 KA relative to UGCAUGU.

Regarding B16, the binding signal is 0.0894 KA relative to UGCAUGU.

As to B17, the binding signal is 0.125 KA relative to UGCAUGU.

As for B18, the binding signal was 0.0724 KA relative to UGCAUGU.

For the molecule B19, the binding signal is 0.101 KA relative to UGCAUGU.

Regarding B20, the binding signal is 0.137 KA relative to UGCAUGU.

B21: the binding signal is 0.101 KA relative to UGCAUGU.

B22: the binding signal is 0.109 KA relative to UGCAUGU.

Turning to B23, the binding signal is 0.0878 KA relative to UGCAUGU.

B24: the binding signal is 0.0805 KA relative to UGCAUGU.

In the case of B25, the binding signal is 0.0664 KA relative to UGCAUGU.

Take B26: the binding signal was 0.113 KA relative to UGCAUGU.

Regarding B27, the binding signal was 0.709 KA relative to UGCAUGU.

B28: the binding signal is 0.0498 KA relative to UGCAUGU.

B29: the binding signal was 0.0621 KA relative to UGCAUGU.

For B30, the binding signal is 0.131 KA relative to UGCAUGU.

With B31, the binding signal was 0.0889 KA relative to UGCAUGU.
